Hit rate of the full screen: of about 45,000 compounds, about 65 (0.1%) were called active. The call rests on the fitted dose curve; in most records, active means well fitted activation curve with a large enough effect; inconclusive means small, poorly fitted or top-dose-only effect; inactive means no such curve, though single readings can be large or run the other way. The list shows a part of the results.
What follows are compounds tested against Galactocerebrosidase (Homo sapiens) (UniProt P54803) (assay: A Novel Cell-Based Assay to Identify Small Molecules for B -Galactocerebrosidase). Settings: 145M-Twi-hGALC-G270D cells (Twitcher mouse brain line with human GALC G270D), HMU-beta-Gal fluorescence, 48 h; series mostly up to 57.5 µM; activation: at the top concentration.
Chain of UniProt P54803 (P54803 whole entry, looked up): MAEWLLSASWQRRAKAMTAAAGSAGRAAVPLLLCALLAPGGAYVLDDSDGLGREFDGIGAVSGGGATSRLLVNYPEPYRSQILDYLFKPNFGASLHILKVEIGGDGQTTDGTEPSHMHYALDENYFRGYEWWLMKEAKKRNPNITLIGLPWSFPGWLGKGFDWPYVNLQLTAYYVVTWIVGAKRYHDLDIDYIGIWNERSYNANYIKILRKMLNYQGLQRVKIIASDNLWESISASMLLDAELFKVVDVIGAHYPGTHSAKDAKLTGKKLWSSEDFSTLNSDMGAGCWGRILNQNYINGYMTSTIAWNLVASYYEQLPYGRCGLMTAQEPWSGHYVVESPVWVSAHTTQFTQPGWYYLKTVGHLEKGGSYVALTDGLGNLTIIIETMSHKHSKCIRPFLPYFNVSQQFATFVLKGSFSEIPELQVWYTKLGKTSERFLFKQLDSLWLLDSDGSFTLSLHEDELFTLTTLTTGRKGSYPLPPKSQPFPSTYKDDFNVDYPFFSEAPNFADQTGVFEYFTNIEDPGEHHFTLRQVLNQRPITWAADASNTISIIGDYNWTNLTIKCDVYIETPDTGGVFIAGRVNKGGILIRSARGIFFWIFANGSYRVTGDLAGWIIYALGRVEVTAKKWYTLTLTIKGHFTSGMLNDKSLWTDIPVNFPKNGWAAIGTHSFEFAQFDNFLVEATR
Outline: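 Live 145M-Twi cells (Twitcher mouse brain-derived, GALC-null) stably expressing human GALC-G270D, with a wild-type GALC line, were compound-treated. Residual GALC activity was then read as fluorescence from 0.1 mM final HMU-β-gal at pH 5.2; higher signal means activation.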
Further: 0% is about no effect; nearly all actives have a fitted effect of over 65% in size.

Structure (SMILES)	activation
CCOc1ccc(C(=O)NCc2nc3cccnc3n2Cc2cccc(OC)c2)cc1	inactive: -3.44%
CCCN(CCC)C(=O)C(CCC(=O)OCCCN1CCN(CCOC(=O)Cc2c(C)n(C(=O)c3ccc(Cl)cc3)c3ccc(OC)cc23)CC1)NC(=O)c1ccccc1 (configuration not stated)	inactive: -15.1%
CCOc1ccccc1CNC(=O)c1ccc(NC(=O)N2CC(C)Sc3ccccc32)cc1 (configuration not stated)	inactive: -11%
COc1ccc(OC)c(CNC(=O)CN(c2ccc(C)cc2)S(=O)(=O)N(C)C)c1	inactive: -0.694%
Cc1cccc(NC(=O)N2CCN(C)c3ncccc32)c1C	inactive: -5.87%
N#Cc1ccccc1NC(=O)C(=O)NCCc1csc2nc(-c3cccc(F)c3)nn12	inactive: 2.67%
C=CCCCCCCCCC(=O)O	inactive: -10.7%
CCOc1cccc(CC(=O)NCc2ccc3c(c2)CCN3C(C)=O)c1OCC	inactive: -11.3%
Cc1ccc2[nH]cc(C(c3ccccc3)c3ccc(C)s3)c2c1 (configuration not stated)	inactive: -13.3%
CCC(C)NC(=O)CCc1c(C)nc2c(c(C)nn2-c2ccc(C)cc2)c1C (configuration not stated)	inactive: -7.69%
COCC(C)NC(=O)c1cc2c(=O)n3cccc(C)c3nc2s1 (configuration not stated)	inactive: -11.1%
CCOC(=O)c1ccc(-c2ccc(/C=C(\C#N)c3nc4ccc(C)cc4[nH]3)o2)cc1	inactive: -17.8%
COc1ccc(-c2onc(C)c2C)cc1S(=O)(=O)NCc1ccc(C)o1	inactive: -1.44%
COc1ccc(NC(=O)CSc2nc3ccccc3n2CC(=O)N2CCCCC2C)cc1 (configuration not stated)	inactive: -15.3%
Cc1nn(CCC(=O)NCc2ccc(Cl)cc2)c(=O)c2nn(-c3ccccc3)c(C)c12	inactive: -6.65%
COc1ccc(-c2nc3ccc(C4=NNC(=O)CC4C)cc3[nH]2)cc1 (configuration not stated)	inactive: -8.79%
COc1ccc(CCCc2nnc(SCC(=O)Nc3cccc(C)c3)o2)cc1	inactive: -9.35%
CC(CNC(=O)C1CCN(C(=O)N2CCOc3ccc(Cl)cc32)CC1)c1ccccc1 (configuration not stated)	inactive: -6.72%
CCN(c1ccc(Cl)cc1)S(=O)(=O)c1nnc(NC(=O)c2ccccc2C)s1	inactive: -13.5%
O=[N+]([O-])c1cc(-c2nc(-c3ccco3)no2)ccc1NCc1ccccc1	inactive: -1.83%
Cc1nn(CCCC(=O)NCc2ccc(OC(C)C)cc2)c(=O)c2c1sc1ccccc12	inactive: -12.6%
COc1ccc(S(=O)(=O)c2nnn(-c3ccccc3F)c2C)cc1	inactive: -19.6%
Cc1ccc(Cc2nc3ccccc3nc2SCC(=O)N2CCN(c3ccccc3)CC2)cc1	inactive: -12.9%
Cc1ccc(NC(=O)CC2Nc3cc(C)c(C)cc3NC2=O)c(C)c1 (configuration not stated)	inactive: -9.58%
CCOc1ccccc1NC(=O)C1=C(C)Nc2ncnn2C1c1ccc(NC(C)=O)cc1 (configuration not stated)	inactive: 3.4%

Structure (SMILES)	activation
N#CC1=C2SCN(C3CCCCC3)CN2C(=O)CC1c1c(F)cccc1Cl (configuration not stated)	inactive: -10.1%
CCc1ccc(Sc2cc(C(=O)O)c3ccccc3n2)cc1	inactive: -4.59%
COc1ccc(Cn2c(CO)cnc2SCc2ccc(F)cc2)cc1	inactive: -29.7%
CCN(CC)CCNC(=O)COc1ccc(OC)cc1	inactive: -4.45%
COc1ccc(-n2nc(C(=O)N(C)c3cc(Cl)ccc3OC)c3c4ccccc4n(C)c3c2=O)cc1	inactive: -8.42%
Cc1nn(CC(=O)N2CCN(c3cccc(C(F)(F)F)c3)CC2)c(=O)c2cc3sccc3n12	inactive: -25.6%
Cc1ccc(S(=O)(=O)c2[nH]c(-c3ccccc3)nc2SCCC(=O)O)cc1	inactive: -2.79%
Cc1ccc(N2CC(NC(=O)CCc3ccccc3)CC2=O)cc1C (configuration not stated)	inactive: -8.55%
CCCn1c(=N)n(CC(O)COc2ccccc2OC)c2ccccc21 (configuration not stated)	inactive: 12.1%
Cc1cccc(N(Cc2cc3ccccc3[nH]c2=O)C(=O)c2cccc(Cl)c2)c1	inactive: -20.2%
Cc1cccc(CCNC(=O)c2ccc(CSCc3cccc(Cl)c3)o2)c1	inactive: -15.3%
CCOc1ccc(NC(=O)CC(C)O)cc1 (configuration not stated)	inactive: -11.1%
CCCN1CCN(c2cc3c(cc2F)c(=O)c(S(=O)(=O)c2ccc(CC)cc2)cn3CC)CC1	inactive: -12.5%
CCn1ccc2c(OCC(=O)NCc3ccccc3)cccc2c1=O	inactive: -11%
Cc1c(Cl)cccc1NC(=O)CSc1nc2ncccc2o1	inactive: -3.29%
CC1Cn2c(C(=O)NCc3cccc(Br)c3)cc3cccc(c32)S1 (configuration not stated)	inactive: -14.1%
CC(C)(C)C1CCc2nc(NC(=O)c3ccc([N+](=O)[O-])cc3)sc2C1 (configuration not stated)	inactive: 2.66%
COc1ccc2oc(-c3ccc(C)c(NC(=O)c4ccc(-c5ccccc5[N+](=O)[O-])o4)c3)nc2c1	inactive: -8.47%
Cc1cccc(-c2nc3c(cnn3-c3ccccc3)c(=O)n2-c2ccc(Br)cc2)c1	inactive: -18.5%
Cc1ccc(C(=O)O)cc1NC1(c2ccccc2)C(=O)c2ccccc2C1=O	inactive: -18.1%
O=C(CCSCc1cccc(Cl)c1)NCc1ccc(F)cc1Cl	inactive: -7.42%
Cc1ccc2[nH]c(CSc3nnc(NC(=O)c4ccccc4F)s3)cc(=O)c2c1	inactive: -18%
CCc1ccccc1NC(=O)c1sc2nc(C)cc(COC)c2c1N	inactive: -16.2%
COc1ccccc1CNC(=O)C1CCCN(c2nnc(C)c3c(C)n(-c4ccccc4)nc23)C1 (configuration not stated)	inactive: -13.7%
CC(=O)OCC1=C(C(=O)O)N2C(=O)[C@@H](NC(=O)Cc3cccs3)[C@H]2SC1	inactive: -16.5%

Structure (SMILES)	activation
Cc1cccc(CN2C(=O)N(c3ccc(C(C)C)cc3)S(=O)(=O)c3ccccc32)c1	inactive: -16%
O=C(COc1ccccc1F)Nc1ccc2oc(-c3cccc(Cl)c3)nc2c1	inactive: -23.2%
Cc1ccc(-c2ccc(=O)n(CC(=O)Nc3ccc(C)cc3Cl)n2)cc1	inactive: -13.2%
COc1ccccc1-c1nc(SCC(=O)NCc2ccc(C)cc2)c2c(=O)n(C)c(=O)n(C)c2n1	inactive: -11.5%
COc1ccc(C(=O)Nc2ccc3oc(-c4cccnc4)nc3c2)cc1	inactive: -14.5%
Clc1cccc(N2CCN(c3nc4ccccc4n4nnnc34)CC2)c1	inactive: -5.3%
COc1ccc(C2C=C(c3ccccc3)Nc3nc(NC(=O)c4cccc([N+](=O)[O-])c4)nn32)cc1 (configuration not stated)	inactive: -2.77%
COc1cccc(/C=C/c2nc(C#N)c(NCCc3ccccc3)o2)c1	inactive: -18.7%
Cc1c(C(=O)NCc2ccccc2)sc2nc3n(c(=O)c12)CCCCC3	inactive: -15.8%
CCOc1ccc(NC(=O)C2CC(=O)NC(=Nc3ccc(Cl)c(Cl)c3)S2)cc1 (configuration not stated)	inactive: -8.05%
CCOC(=O)c1ccc(NC(=O)C2CCCN(c3ncnc4onc(-c5ccc(F)cc5)c34)C2)cc1 (configuration not stated)	inactive: -9.04%
COc1cccc(CNC(=O)c2sc3nc(C)cc(C)c3c2-n2cccc2)c1OC	inactive: 0.089%
Cc1ccc(OCC(=O)Nc2cccc(-c3nc4ccccc4s3)c2)cc1	inactive: -9.1%
COCCNC(=O)CCn1c(=O)c2cc(OC)c(OC)cc2n(CC(=O)Nc2ccc(Cl)cc2F)c1=O	inactive: -16.3%
Cc1ccc(-c2n[nH]c3c2C(c2ccc(C(C)(C)C)cc2)NC3=O)cc1 (configuration not stated)	inactive: 5.76%
Cc1nn(S(=O)(=O)c2ccc(C(C)(C)C)cc2)c(C)c1S(=O)(=O)N1CCCCCC1	inactive: -6.36%
Cc1ccc(NC(=O)c2oc3ccc(S(=O)(=O)N4CCC5(CC4)OCCO5)cc3c2C)cc1C	inactive: 8.48%
CCOC(=O)COc1ccc(CC)cc1C(=O)c1ccn2nc(-c3ccccc3)cc2n1	inactive: -7.27%
Cc1ccc(Cl)cc1N1CCN(C(=O)c2ccc(NC(=O)c3nsc4ccccc34)cc2)CC1	inactive: -3.8%
COC(=O)C(Cc1c[nH]c2ccccc12)NC(=O)COc1cccc(C)c1 (configuration not stated)	inactive: -8.88%
COC(=O)c1sccc1S(=O)(=O)N1CCN(c2cc(Cl)ccc2C)CC1	inactive: -6.95%
COc1cccc(Nc2ccc3cc(S(=O)(=O)N4CCC(C)CC4)ccc3n2)c1	inactive: 0.771%
CCCCC(=O)NCc1nc2cccnc2n1Cc1ccc(OC)cc1	inactive: -10.8%
CCCOc1cccc(C(=O)Nc2cccc(-c3nc4ncccc4o3)c2C)c1	inactive: -3.79%
CCC1CN(C(=O)N2CCC(C(=O)NCc3ccc(N(C)C)cc3)CC2)c2ccccc2O1 (configuration not stated)	inactive: 7.05%

Structure (SMILES)	activation
CCOc1ccc(-n2c(/C=C/c3cccc(F)c3)nc3cc(OC)c(OC)cc3c2=O)cc1	inactive: -14.4%
COc1ccc(-c2oc3ncn4nc(-c5ccccc5O)nc4c3c2-c2ccc(OC)cc2)cc1	inactive: -13.7%
COc1ccc(-c2cc(-c3ccc(F)cc3)nc3c2COc2ccc(F)cc2-3)cc1	inactive: -15.4%
Cc1ccccc1-c1nc2scc(CCNS(=O)(=O)c3ccccc3)n2n1	inactive: -33.1%
Cc1nn2c(=O)cc(COC(=O)c3cccc(NC(=O)CCc4ccccc4)c3)nc2s1	inactive: -4.36%
Cc1c(C(=O)NCc2ccccc2Cl)sc2nc3n(c(=O)c12)CCCCC3	inactive: -48.4%
CC(=O)c1cccc(NC(=O)C2CCN(C(=O)c3cnn(-c4ccccc4)c3-n3cccc3)CC2)c1	inactive: -8.78%
CCn1cc2nc(SCC(=O)Nc3ccc(OC)c(OC)c3)n(Cc3ccc(Cl)cc3)c(=O)c2n1	inactive: -13.4%
Cc1cn2c(=O)cc(COC(=O)c3cccc(NC(=O)c4ccc(C(C)(C)C)cc4)c3)nc2s1	inactive: -0.464%
CCOc1ccc(NC(=O)CN2C(=O)CC(C)Sc3ccccc32)cc1 (configuration not stated)	inactive: 1.78%
O=C1CN(C(=O)COc2ccc(Cl)cc2)C(c2ccccc2)c2cc(Br)ccc2N1 (configuration not stated)	inactive: -6.43%
CC(C)(C)OC(=O)N1CCC(c2c(C(=O)Nc3ccc4c(c3)OCCO4)cnn2-c2ccc(Cl)cc2)CC1	inactive: -21.8%
O=C(NCc1ccccc1)C1CCCN(S(=O)(=O)c2cccc3nsnc23)C1 (configuration not stated)	inactive: -12.5%
COc1cc2c(=O)n(Cc3ccccc3Cl)c(=O)n(CC(=O)Nc3ccc(C)c(C)c3)c2cc1OC	inactive: -11.4%
CC(C)Oc1ccccc1C1C=C(C(=O)O)Nc2ncnn21 (configuration not stated)	inactive: -16.9%
COc1ccc(CCn2c3c(c(=O)[nH]c2=O)C(NC(=O)c2ccccc2F)(C(F)(F)F)C(=O)N3)cc1OC (configuration not stated)	inactive: -13.3%
COc1ccc(C)cc1NC(=O)C1CCN(S(=O)(=O)c2ccc3[nH]c(=O)oc3c2)CC1	inactive: -16.1%
Cc1cccc(C(=O)Nc2cc(-c3nc4cccnc4s3)ccc2C)c1	inactive: -10.6%
Cc1ccc2c(c1)C(Cc1ccccc1F)C(=O)N2 (configuration not stated)	inactive: -15.4%
CCn1cc(CCC(=O)NCc2ccc(C)cc2)c2ccccc21	inactive: -6.76%
COc1ccc(CCNC(=O)C(CC(C)C)N2Cc3ccccc3C2=O)c(OC)c1OC (configuration not stated)	inactive: -3.21%
O=C(CSc1oc(-c2ccccc2)nc1S(=O)(=O)c1ccc(Cl)cc1)Nc1ccc(F)cc1	inactive: -11.6%
